# Measurements published in PMC4336329 (PLoS ONE, 2015).
# Out of some 310,000 compounds screened, about 14,000 (4.5%) showed an effect of 50% or more. The effect is printed as a negative number. This is one part of the list.
# Target: human ether-à-go-go-related gene (hERG) potassium channel (human, UniProt Q12809)
# Assay: primary screen, population patch clamp on CHO cells stably expressing hERG
# 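Further: peak tail current of the secondary pulse compared with the same well before compound.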
# Sequence of human ether-à-go-go-related gene (hERG) potassium channel (Q12809 whole entry, looked up): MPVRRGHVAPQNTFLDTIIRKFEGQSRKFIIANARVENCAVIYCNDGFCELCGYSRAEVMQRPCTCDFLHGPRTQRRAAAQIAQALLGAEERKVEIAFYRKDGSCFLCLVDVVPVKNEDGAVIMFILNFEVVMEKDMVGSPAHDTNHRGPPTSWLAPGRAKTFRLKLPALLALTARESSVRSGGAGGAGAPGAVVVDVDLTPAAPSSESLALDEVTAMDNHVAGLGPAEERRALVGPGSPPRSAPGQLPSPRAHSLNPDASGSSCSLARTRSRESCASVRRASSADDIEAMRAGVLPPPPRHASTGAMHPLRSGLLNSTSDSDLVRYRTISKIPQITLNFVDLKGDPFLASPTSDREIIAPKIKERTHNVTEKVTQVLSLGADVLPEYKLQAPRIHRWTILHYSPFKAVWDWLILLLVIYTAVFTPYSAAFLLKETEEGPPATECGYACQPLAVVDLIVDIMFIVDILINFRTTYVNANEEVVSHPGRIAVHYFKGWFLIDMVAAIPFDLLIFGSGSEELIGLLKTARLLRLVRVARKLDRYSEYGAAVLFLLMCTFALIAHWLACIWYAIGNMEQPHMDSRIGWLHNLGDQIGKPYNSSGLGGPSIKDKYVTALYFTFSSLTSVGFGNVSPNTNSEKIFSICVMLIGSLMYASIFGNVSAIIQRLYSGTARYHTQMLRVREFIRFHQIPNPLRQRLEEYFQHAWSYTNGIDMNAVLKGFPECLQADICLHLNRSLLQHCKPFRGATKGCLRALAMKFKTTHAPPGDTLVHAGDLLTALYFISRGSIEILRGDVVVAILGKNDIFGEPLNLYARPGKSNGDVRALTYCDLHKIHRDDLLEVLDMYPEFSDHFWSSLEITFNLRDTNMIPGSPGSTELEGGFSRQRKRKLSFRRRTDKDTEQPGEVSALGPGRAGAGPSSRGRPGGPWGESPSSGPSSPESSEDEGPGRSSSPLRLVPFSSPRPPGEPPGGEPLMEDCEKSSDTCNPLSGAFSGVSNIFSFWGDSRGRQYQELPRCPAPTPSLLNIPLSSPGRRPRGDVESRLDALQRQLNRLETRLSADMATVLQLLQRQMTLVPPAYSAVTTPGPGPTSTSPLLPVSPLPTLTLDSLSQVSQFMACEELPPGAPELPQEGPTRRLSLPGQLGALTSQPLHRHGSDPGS
row,SMILES,"hERG current change (%, negative = inhibition) at 10uM"
1,CC1(C)Oc2ccc3ccc(=O)oc3c2/C(=N/O)C1=O,20.4%
2,CCCc1[nH]c(=O)c(C#N)c2c1CCCC2,25%
3,COCCn1c(=S)[nH]c2cc(C(=O)N3CCc4ccccc43)ccc2c1=O,12.9%
4,CCCCCCCCN=Cc1c(O)[nH]c(=O)[nH]c1=O,4.9%
5,O=C(NC1CCCC1)C(c1ccncc1)N(Cc1cccs1)C(=O)c1csnn1 (stereo not drawn),-14.5%
6,CCOC(=O)c1cc(-c2ccccc2)nn1CC1CC(c2ccc(Cl)cc2)=NO1 (stereo not drawn),-16.2%
7,Cc1cc(NC(=O)CN2C(=O)NC(C)(c3ccc(OC(F)F)cc3)C2=O)no1 (stereo not drawn),-9.97%
8,COc1cccc(NC(=O)c2nc(SC)ncc2Cl)c1,9.72%
9,CCCN1C(=O)C(NS(=O)(=O)c2ccc(N)cc2)(C(F)(F)F)C(C(=O)OC)=C1C (stereo not drawn),10.1%
10,Nc1ncnc(Nc2ccccn2)c1[N+](=O)[O-],5.96%
11,COc1ccccc1CCC(=O)N1CCC(n2nccc2NC(=O)CC(C)C)CC1,-7.32%
12,Cc1ccc2cc3cc(C(=O)NC4CCCCC4)oc3nc2c1,5.08%
13,C[C@H](NC(=O)c1nc[nH]c1C(=O)NC1CC[NH2+]CC1)C(=O)OC(C)(C)C.[Cl-],12.1%
14,COc1ccc(CCNC(=O)CCc2nnc(Cc3ccc4c(c3)OCO4)o2)cc1,-2.67%
15,COc1ccc2c(c1)OC[C@H]1[C@H]2N2C(=O)CN(Cc3ccc(F)cc3)C(=O)[C@@]2(C)[C@H]1c1ccccc1,3.71%
16,O=C(CSc1cnc2ccccc2n1)c1ccc(F)cc1,21.2%
17,Cn1c(SCc2nc(-c3cccs3)no2)nnc1C1CCCCC1,-10%
18,O=C(CCn1c(=O)c2sccc2n(Cc2cc(=O)n3ccccc3n2)c1=O)NCc1ccco1,-20.3%
19,O=C(OCc1cccc([N+](=O)[O-])c1)c1cc2ccccc2oc1=O,20.7%
20,COc1ccc(N2C(=O)CC(Cc3ccccc3OC)C2=O)cc1 (stereo not drawn),13.2%
21,Cc1ccc(Cn2c(=S)[nH]c3ccccc3c2=O)cc1,13.2%
22,O=C(NC1CCCCCC1)c1ccc(CS(=O)Cc2cccc(Cl)c2)o1 (stereo not drawn),-12.7%
23,O=C(COC(=O)c1ccc(F)cc1)NCc1ccc(F)cc1,2.23%

row,SMILES,"hERG current change (%, negative = inhibition) at 10uM"
1,O=C(O)/C(=C\c1cccc(OCc2ccccc2)c1)c1ccc(F)cc1,3.19%
2,O=C(NOC(=O)c1ccccc1)c1ccccc1,15%
3,c1ccc2nc3c(nc2c1)CCc1nonc1-3,-12.1%
4,O=[N+]([O-])c1ccc2[nH]c(O)c(N=NC(=S)Nc3cccnc3)c2c1,9.27%
5,CN1CCN(Cc2c(O)ccc3occ(C(=O)c4ccccc4)c23)CC1,-39.3%
6,CN1CCc2c(sc(NC(=O)Cc3ccc(F)cc3)c2C(N)=O)C1.Cl,0.15%
7,Cc1nc(SCc2cccc(C(=O)O)c2)nc2c1CCCC2,11.4%
8,COc1ccc2nc(NC(=O)C3CCCN(S(=O)(=O)c4cccc5nsnc45)C3)sc2c1 (stereo not drawn),-14.5%
9,CCN(CC)CCCNC(=O)c1c(O)c2ccccc2n(Cc2ccccc2)c1=O.Cl,-63.8%
10,CCSc1ncc(/C=N/Nc2ccc([N+](=O)[O-])cc2)n1C,6.72%
11,Cc1ccccc1NC(=O)CC(=O)Nc1ccccc1C,19.6%
12,Cc1ccccc1C(=O)Nc1cc(S(=O)(=O)N2CCCCC2)ccc1N1CCN(C)CC1,-37.4%
13,O=C(c1ccccc1NS(=O)(=O)c1ccccc1[N+](=O)[O-])N1CCOCC1,16.3%
14,Cc1cc(CN2CCCC(CNC(=O)c3ccc(F)cc3)C2)cc(C)c1O (stereo not drawn),-24.1%
15,CCOc1ccc(S(=O)(=O)Nc2ccccc2C(=O)NCc2ccco2)cc1,-21.2%
16,O=C(c1ccccc1)N1CCN(S(=O)(=O)c2ccccc2)CC1,-0.192%
17,COc1ccccc1C(=O)Nc1ccccc1C(=O)NC1CCCCC1,-1.19%
18,O=C(NC(=S)Nc1ccccc1O)c1cccnc1,18.2%
19,CCCCSc1nc2sc3c(c2c(=O)n1-c1ccccc1)CCN(C)C3,-13.8%
20,CCOC(=O)c1ccc(NC(=S)NC(=O)c2nn(CC)cc2Br)cc1,3.85%
21,O=C(c1cc(Cl)ccc1Cl)N1CCc2ccccc21,-9.85%
22,CCCCNC(=O)c1onc(CSc2ccccc2CC)c1C(=O)O,9.09%
23,CCOCCCNc1nc2c(c(=O)n(C)c(=O)n2C)n1CCCc1ccccc1,-5.32%

row,SMILES,"hERG current change (%, negative = inhibition) at 10uM"
1,COc1cccc(CNC(=O)CCC2CCCN(C(=O)c3ccc(OC)c(F)c3)C2)c1 (stereo not drawn),-9.79%
2,CCOc1ccc(N2C(=O)CC(n3ccc(C)n3)C2=O)cc1 (stereo not drawn),9.83%
3,Cc1cc(CN(C)C(=O)c2cc(COc3ccc4ncccc4c3)on2)on1,-4.72%
4,Cc1ccc(Cl)c(NC(=O)COC(=O)CNS(=O)(=O)/C=C/c2ccccc2)c1Cl,12%
5,CCN(CC)c1cc2nonc2c2nonc12,-1.27%
6,C=CCn1c(=NC(=O)C2CCCCC2)sc2cc(NC(C)=O)ccc21,-2.15%
7,CCc1nc(C)ccc1OCC(=O)NCCCN(C)C.O=C(O)C(=O)O,4.48%
8,Cc1ccc(-n2c(C)nnc2SC(C)C(=O)N2CCCC2)cc1 (stereo not drawn),12.4%
9,CC(NC(=O)OCc1ccccc1)C(=O)Oc1cc2oc(=O)cc(-c3ccccc3)c2cc1Cl (stereo not drawn),8.91%
10,Cc1cc(C)n(-c2ccc(C(=O)Nc3nc4ccccc4s3)cc2)n1,11.4%
11,O=[N+]([O-])c1ccc(N2CCN(c3ccccc3)CC2)nc1,4.96%
12,CCC(=O)c1ccc(O)cc1,11.7%
13,O=C(CN1C(=O)NC2(CCCC2)C1=O)N1CCN(c2ccccc2O)CC1,0.336%
14,O=C(COc1nc2ccccc2nc1N1CCOCC1)NCC(F)(F)F,0.307%
15,Cc1noc(C)c1COc1ccc(C(=O)OCC(=O)OC(C)(C)C)cc1,3.21%
16,NS(=O)(=O)c1ccc(CCNC(=O)C(c2ccccc2)c2ccccc2)cc1,14.3%
17,COc1ccc(-n2c(SCC(N)=O)nc3sc4c(c3c2=O)CCN(C)C4)cc1,10.2%
18,CC1=C(C(=O)Nc2ccccc2)C2(CCCCC2)C(C#N)=C(S)N1,17.5%
19,CC(Oc1ccccc1)C(=O)Nc1oc(-c2ccco2)c(-c2ccco2)c1C#N (stereo not drawn),15.9%
20,Cc1ccc(C)c(-n2c(Cc3cc(=O)[nH]c(=O)[nH]3)nnc2SCC(=O)NCc2ccco2)c1,4.83%
21,CC(C)CN(C(=O)c1ccc(N2CCCC2=O)cc1)c1c(N)n(Cc2ccccc2)c(=O)[nH]c1=O,19.6%
22,CCCC(=O)Nc1c2c(nn1-c1ccc(OC)cc1)CS(=O)C2 (stereo not drawn),18.1%
23,COc1ccc(C(=O)NC(C)c2nnc(SCC(=O)Nc3nc4ccccc4s3)n2C)cc1 (stereo not drawn),-59.4%

row,SMILES,"hERG current change (%, negative = inhibition) at 10uM"
1,CN(C)c1cc[n+](CC(=O)Nc2c(Cl)cc(Cl)cc2Cl)cc1.[Cl-],10.5%
2,S=C(c1ccc2c(c1)OCO2)N1CCCCC1,11.5%
3,Cc1ccc(SCC(=O)NCc2ccccc2)cc1,2.88%
4,O=C(CCN1C(=O)C2C3C=CC(C4CC34)C2C1=O)Oc1ccccc1 (stereo not drawn),-43.5%
5,O=C(C1=NNCC1c1ccccc1)C1OC1c1ccccc1 (stereo not drawn),-1.87%
6,COC(=O)N/N=C/c1c(C)c(C(=O)c2ccc(F)cc2)n2ccccc12,-14.9%
7,CCNC(=O)OCc1cn(-c2ccc(Cl)cc2)nn1,17.3%
8,COc1ccc(CCNc2ccncn2)cc1OC.Cl,4.23%
9,Cc1ccc(N2C(=O)CC(Sc3cccs3)C2=O)cc1 (stereo not drawn),12%
10,CCCn1c(=O)[nH]c(=O)c2c1nc(-c1ccc(C(F)(F)F)cc1)n2CCOC,-4.45%
11,Cc1cccc(NC(=O)c2ccc([N+](=O)[O-])s2)n1,-13.3%
12,Clc1ccc(Cl)c(OCCN2CCOCC2)c1,-3.47%
13,CN1CCN(C(=S)c2cn(Cc3ccc(Br)cc3)c3ccccc23)CC1,13.3%
14,CCC(C)NCCC(=O)Nc1ccc(Cl)c(S(=O)(=O)Nc2ccc(Cl)cc2)c1 (stereo not drawn),-53.6%
15,Cc1c(N=Cc2ccccn2)c(=O)n(-c2ccccc2)n1C,-9.02%
16,S=C(Nc1cccc2ccccc12)NN1CCOCC1,4.15%
17,COC(=O)c1ccc(NC2=C(Cl)C(=O)OC2OC(=O)c2ccccc2)cc1 (stereo not drawn),-22.5%
18,Cc1c(C(=O)Nc2ccc(-n3cnnn3)cc2)oc2ccccc12,3.71%
19,CCCCOc1ccc(Cc2n[nH]c(=S)n2N)cc1,16.7%
20,Cc1ccc(N2CC(C(=O)NCc3ccc(C)n3C)CC2=O)cc1 (stereo not drawn),14.9%
21,COc1cccc(N2CCN(C(=S)Nc3ccc(C)cc3C)CC2)c1,14%
